Results as given in article PMC9911399, “Two distinct binding modes provide the RNA-binding protein RbFox with extraordinary sequence specificity”.
Residue numbers refer to the chain shown, from its start. The list shows a part of the results.

T1: RBFOX1 RRM RbFoxmut (Fox-RRM*) (Homo sapiens, UniProt Q9NWB1 109-208, R118D;E147R;N151S;E152T)
T1 sequence: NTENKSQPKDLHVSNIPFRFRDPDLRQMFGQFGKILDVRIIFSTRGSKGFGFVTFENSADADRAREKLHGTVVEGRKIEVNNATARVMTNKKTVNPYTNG

B1: CGCUUUA (DNA:RNA)
RNA: GGGAGACCGGAAUUCAGAUUGUCCCGCUUUAUUAAAUCCCGUCGUAGCCACCA
DNA 1: CAATCTGAATTCCGGTCTCCC
DNA 2: TGGTGGCTACGACGGGATT
B2: CCUUUCC (DNA:RNA)
RNA: B1 RNA with G26C, C27U, U30C, A31C
DNA 1: CAATCTGAATTCCGGTCTCCC
DNA 2: TGGTGGCTACGACGGGATT
B3: CAGUCAU (DNA:RNA)
RNA: B1 RNA with G26A, C27G, U29C, U30A, A31U
DNA 1: CAATCTGAATTCCGGTCTCCC
DNA 2: TGGTGGCTACGACGGGATT
B4: UAUUCAU (DNA:RNA)
RNA: B1 RNA with C25U, G26A, C27U, U29C, U30A, A31U
DNA 1: CAATCTGAATTCCGGTCTCCC
DNA 2: TGGTGGCTACGACGGGATT
B5: GCUGGGU (DNA:RNA)
RNA: GGGAGACCGGAAUUCAGAUUGUCCGCUGGGUUUAAAUCCCGUCGUAGCCACCA
DNA 1: CAATCTGAATTCCGGTCTCCC
DNA 2: TGGTGGCTACGACGGGATT
B6: CAUGCAG (DNA:RNA)
RNA: B5 RNA with G25C, C26A, G29C, G30A, U31G
DNA 1: CAATCTGAATTCCGGTCTCCC
DNA 2: TGGTGGCTACGACGGGATT
B7: GUCCGUA (DNA:RNA)
RNA: B1 RNA with C25G, G26U, U28C, U29G
DNA 1: CAATCTGAATTCCGGTCTCCC
DNA 2: TGGTGGCTACGACGGGATT
B8: UAGAGCA (DNA:RNA)
RNA: B1 RNA with C25U, G26A, C27G, U28A, U29G, U30C
DNA 1: CAATCTGAATTCCGGTCTCCC
DNA 2: TGGTGGCTACGACGGGATT
B9: CAGCUUG (DNA:RNA)
RNA: B1 RNA with G26A, C27G, U28C, A31G
DNA 1: CAATCTGAATTCCGGTCTCCC
DNA 2: TGGTGGCTACGACGGGATT
B10: GAUUAGC (DNA:RNA)
RNA: B5 RNA with C26A, G28U, G29A, U31C
DNA 1: CAATCTGAATTCCGGTCTCCC
DNA 2: TGGTGGCTACGACGGGATT
B11: CCUAACG (DNA:RNA)
RNA: B5 RNA with G25C, G28A, G29A, G30C, U31G
DNA 1: CAATCTGAATTCCGGTCTCCC
DNA 2: TGGTGGCTACGACGGGATT
B12: UCGUAAU (DNA:RNA)
RNA: B5 RNA with G25U, U27G, G28U, G29A, G30A
DNA 1: CAATCTGAATTCCGGTCTCCC
DNA 2: TGGTGGCTACGACGGGATT
B13: GUGCUAC (DNA:RNA)
RNA: B1 RNA with C25G, G26U, C27G, U28C, U30A, A31C
DNA 1: CAATCTGAATTCCGGTCTCCC
DNA 2: TGGTGGCTACGACGGGATT
B14: GUGUUCA (DNA:RNA)
RNA: B1 RNA with C25G, G26U, C27G, U30C
DNA 1: CAATCTGAATTCCGGTCTCCC
DNA 2: TGGTGGCTACGACGGGATT
B15: CCUAACA (DNA:RNA)
RNA: B1 RNA with G26C, C27U, U28A, U29A, U30C
DNA 1: CAATCTGAATTCCGGTCTCCC
DNA 2: TGGTGGCTACGACGGGATT
B16: GAGAUGC (DNA:RNA)
RNA: B5 RNA with C26A, U27G, G28A, G29U, U31C
DNA 1: CAATCTGAATTCCGGTCTCCC
DNA 2: TGGTGGCTACGACGGGATT
B17: CGAGAUG (DNA:RNA)
RNA: B1 RNA with C27A, U28G, U29A, A31G
DNA 1: CAATCTGAATTCCGGTCTCCC
DNA 2: TGGTGGCTACGACGGGATT
B18: AUCACAU (DNA:RNA)
RNA: B1 RNA with C25A, G26U, U28A, U29C, U30A, A31U
DNA 1: CAATCTGAATTCCGGTCTCCC
DNA 2: TGGTGGCTACGACGGGATT
B19: AAGCGCC (DNA:RNA)
RNA: B5 RNA with G25A, C26A, U27G, G28C, G30C, U31C
DNA 1: CAATCTGAATTCCGGTCTCCC
DNA 2: TGGTGGCTACGACGGGATT
B20: GUGACGU (DNA:RNA)
RNA: B5 RNA with C26U, U27G, G28A, G29C
DNA 1: CAATCTGAATTCCGGTCTCCC
DNA 2: TGGTGGCTACGACGGGATT
B21: ACCCGCC (DNA:RNA)
RNA: B5 RNA with G25A, U27C, G28C, G30C, U31C
DNA 1: CAATCTGAATTCCGGTCTCCC
DNA 2: TGGTGGCTACGACGGGATT
B22: AACAAUA (DNA:RNA)
RNA: B1 RNA with C25A, G26A, U28A, U29A
DNA 1: CAATCTGAATTCCGGTCTCCC
DNA 2: TGGTGGCTACGACGGGATT
B23: AUGACCC (DNA:RNA)
RNA: GGGAGACCGGAAUUCAGAUUGUCCAUGACCCUUAAAUCCCGUCGUAGCCACCA
DNA 1: CAATCTGAATTCCGGTCTCCC
DNA 2: TGGTGGCTACGACGGGATT
B24: UGGGUGU (DNA:RNA)
RNA: B5 RNA with G25U, C26G, U27G, G29U
DNA 1: CAATCTGAATTCCGGTCTCCC
DNA 2: TGGTGGCTACGACGGGATT
B25: GAAGUUC (DNA:RNA)
RNA: B1 RNA with C25G, G26A, C27A, U28G, A31C
DNA 1: CAATCTGAATTCCGGTCTCCC
DNA 2: TGGTGGCTACGACGGGATT
B26: UGGUGCG (DNA:RNA)
RNA: B23 RNA with A25U, U26G, A28U, C29G, C31G
DNA 1: CAATCTGAATTCCGGTCTCCC
DNA 2: TGGTGGCTACGACGGGATT
B27: GCAUUUA (DNA:RNA)
RNA: B1 RNA with C25G, G26C, C27A
DNA 1: CAATCTGAATTCCGGTCTCCC
DNA 2: TGGTGGCTACGACGGGATT
B28: UCGCCCG (DNA:RNA)
RNA: B23 RNA with A25U, U26C, A28C, C31G
DNA 1: CAATCTGAATTCCGGTCTCCC
DNA 2: TGGTGGCTACGACGGGATT
B29: AGGUAGA (DNA:RNA)
RNA: B1 RNA with C25A, C27G, U29A, U30G
DNA 1: CAATCTGAATTCCGGTCTCCC
DNA 2: TGGTGGCTACGACGGGATT
B30: AUUGUAC (DNA:RNA)
RNA: B23 RNA with G27U, A28G, C29U, C30A
DNA 1: CAATCTGAATTCCGGTCTCCC
DNA 2: TGGTGGCTACGACGGGATT
B31: AUCAUGG (DNA:RNA)
RNA: B23 RNA with G27C, C29U, C30G, C31G
DNA 1: CAATCTGAATTCCGGTCTCCC
DNA 2: TGGTGGCTACGACGGGATT

The binders below were run against T1, RBFOX1 RRM RbFoxmut (Fox-RRM*) (assay: EMSA; HiTS-Eq, 1 nM pool, 10 min; buffer printed only for the single-RNA assays: 10 mM Tris pH 7.5, 150 mM NaCl, 3.4 mM EDTA, 0.001% NP-40, 30 C). Settings: tags: His6 N-terminal (pET28a); label: 5' 32P.
In short: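 Purified wild-type or mutant RbFox RRM at increasing concentrations was equilibrated with 1 nM of 5′-radiolabelled RNA carrying 7 randomized nucleotides for 10 min in 50 µL. Unbound RNA was separated by 8% native PAGE and sequenced. Relative association constants came from read-count changes of each RNA species compared with the control reaction, normalised to the cognate motif.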

Binder | binding signal
B1 | 0.135 KA relative to UGCAUGU
B2 | 0.0512 KA relative to UGCAUGU
B3 | 0.0772 KA relative to UGCAUGU
B4 | 0.101 KA relative to UGCAUGU
B5 | 0.114 KA relative to UGCAUGU
B6 | 0.0953 KA relative to UGCAUGU
B7 | 0.12 KA relative to UGCAUGU
B8 | 0.0838 KA relative to UGCAUGU
B9 | 0.209 KA relative to UGCAUGU
B10 | 0.0959 KA relative to UGCAUGU
B11 | 0.0962 KA relative to UGCAUGU
B12 | 0.0961 KA relative to UGCAUGU
B13 | 0.105 KA relative to UGCAUGU
B14 | 0.14 KA relative to UGCAUGU
B15 | 0.107 KA relative to UGCAUGU
B16 | 0.115 KA relative to UGCAUGU

Binder | binding signal
B17 | 0.158 KA relative to UGCAUGU
B18 | 0.0944 KA relative to UGCAUGU
B19 | 0.134 KA relative to UGCAUGU
B20 | 0.102 KA relative to UGCAUGU
B21 | 0.109 KA relative to UGCAUGU
B22 | 0.0855 KA relative to UGCAUGU
B23 | 0.0678 KA relative to UGCAUGU
B24 | 0.305 KA relative to UGCAUGU
B25 | 0.0483 KA relative to UGCAUGU
B26 | 0.288 KA relative to UGCAUGU
B27 | 0.162 KA relative to UGCAUGU
B28 | 0.0718 KA relative to UGCAUGU
B29 | 0.129 KA relative to UGCAUGU
B30 | 0.154 KA relative to UGCAUGU
B31 | 0.113 KA relative to UGCAUGU
